Test results as given in publication PMC6919601, “Identification of Plasmodium dipeptidyl aminopeptidase allosteric inhibitors by high throughput screening” (PLoS ONE, 2019).
Where “and” joins values, the source holds several entries; their conditions need not be identical. Equal entries are not always repeated. Screen size: about 110,000 compounds; about 230 (0.21%) showed an effect of 50% or more. The list shows a part of the results.

Each compound was assayed against DPAP1 (Plasmodium falciparum, UniProt Q8IIJ9) (assay: primary screen, percent inhibition; read by cleavage of a fluorogenic dipeptide substrate; higher = more effect of the substance).
Parameters: species or system P. falciparum D10 trophozoite lysates; single well
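Further: 30 min substrate incubation versus DMSO and 10 µM JCP410 controls.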

DPAP1, sequence (Q8IIJ9 whole entry, looked up): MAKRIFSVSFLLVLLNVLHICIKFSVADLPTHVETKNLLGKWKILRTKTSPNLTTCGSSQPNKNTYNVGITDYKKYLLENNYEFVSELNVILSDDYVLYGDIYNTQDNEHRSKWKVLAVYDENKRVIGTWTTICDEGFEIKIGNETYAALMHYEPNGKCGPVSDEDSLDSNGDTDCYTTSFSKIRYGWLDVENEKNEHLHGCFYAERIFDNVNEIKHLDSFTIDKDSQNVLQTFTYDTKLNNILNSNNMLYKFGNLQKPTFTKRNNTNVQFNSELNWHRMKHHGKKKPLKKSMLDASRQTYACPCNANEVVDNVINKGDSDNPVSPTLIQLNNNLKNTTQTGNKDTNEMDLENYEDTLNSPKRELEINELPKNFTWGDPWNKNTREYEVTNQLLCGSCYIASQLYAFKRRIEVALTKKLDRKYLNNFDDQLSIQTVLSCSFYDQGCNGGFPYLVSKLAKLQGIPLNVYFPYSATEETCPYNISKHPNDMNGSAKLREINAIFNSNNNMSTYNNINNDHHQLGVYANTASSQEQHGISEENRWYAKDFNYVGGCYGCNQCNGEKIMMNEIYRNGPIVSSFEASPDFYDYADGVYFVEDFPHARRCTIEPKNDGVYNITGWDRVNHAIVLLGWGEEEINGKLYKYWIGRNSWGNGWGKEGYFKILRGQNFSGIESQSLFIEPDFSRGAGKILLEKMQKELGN

Row | SMILES | % Inhibition @ 10 uM
1 | O=C(NCC1CCCO1)c1cc2nc(-c3ccc4c(c3)OCO4)cc(C(F)(F)F)n2n1 (centres unmarked) | 4.07% and 0.907%
2 | Cn1c(=O)c2c(ncn2CC(=O)Nc2ccc(OCc3ccccc3)cc2)n(C)c1=O | -5.15%
3 | O=C1OC(c2ccco2)=N/C1=C\c1ccc2c(c1)OCO2 | -3.15%
4 | C#CCOc1cccc(C2C3=C(CC(C)(C)CC3=O)N(C)C3=C2C(=O)CC(C)(C)C3)c1 | -7.23%
5 | Cc1ccc(S(=O)(=O)N2CCN(c3ncnc4sc5c(c34)CCCC5)CC2)cc1 | -10.8%
6 | Cc1ccc(C)n1-c1nnc(N2CCC(C(=O)NC(C)CCc3ccccc3)CC2)s1 (centres unmarked) | -0.522%
7 | CC1CC(C)CN(CCCNC(=O)CN2C(=O)CSc3ncccc32)C1 (centres unmarked) | 1.03%
8 | C/C(=C\c1ccccc1)CN1CCN(C=O)CC1 | 0.472%
9 | Cc1ccc(-c2nnc(C3CCN(S(=O)(=O)c4cccc5nsnc45)CC3)o2)cc1 | 8.53%
10 | N#CC(=C1CCCCC1)c1nc(-c2ccc(-c3ccccc3)cc2)cs1 | -0.216%
11 | Cc1nc2nc(CNC(=O)OC(C)(C)C)nn2c(C)c1CCC(=O)N1CCOCC1 | 5.91%
12 | O=[N+]([O-])c1ccc(S(=O)(=O)n2cnc3ccccc32)cc1 | 2.81%
13 | CCOC(=O)c1sc(NC(=O)c2ccccc2OCC)c(C(=O)OCC)c1C | 5.22%
14 | Cc1nn2c3c(cnc2c1-c1ccccc1)C(=O)CC(C)(C)C3 | -2.75%
15 | CCCNC(=O)C1CCN(S(=O)(=O)c2c(C)cc(C)cc2C)CC1 | -11%
16 | COc1ccc(-c2noc(CN3CCCC(C(=O)NC4CCCCC4)C3)n2)cc1OC (centres unmarked) | -0.495%
17 | Cn1ncc2c(=O)n(Cc3ccc(C#N)cc3)cnc21 | -2.41%
18 | CCc1cc2c(=O)n(CC(=O)O)cnc2s1 | 2.24%
19 | CCc1nn2cc(-c3cccc(Br)c3)nc2s1 | -2.71%
20 | O=c1cc(O)nc2sc(C3CCCCC3)nn12 | 2.65%
21 | COc1ccccc1NC(=O)C(C)Oc1ccccc1 (centres unmarked) | 0.843%

Row | SMILES | % Inhibition @ 10 uM
22 | CCOC(=O)c1sc2ccccc2c1Cl | -4.35%
23 | COc1ccc2c(c1)C(C)=CC(C)(C)N2S(=O)(=O)c1ccc(C)cc1 | -2.51%
24 | COc1cccc(C2C(C(=O)c3cc4ccccc4o3)=C(O)C(=O)N2CCN2CCOCC2)c1 (centres unmarked) | -16.4%
25 | COCc1nnc(NC(=O)/C=C/c2ccc3c(c2)OCO3)s1 | 1.91%
26 | CCOC(=O)c1[nH]c2c(c1-c1ccccc1)C(=O)CC(c1ccccc1)C2 (centres unmarked) | -3.21%
27 | CC(=O)N1CCC(NC23CC4CC(CC(C4)C2)C3)CC1 | -0.0648%
28 | N#Cc1ccccc1C(=O)Nc1ccccc1N | 5.92%
29 | Cc1c(Cl)cccc1NC(=O)Cc1ccc(-c2ccccc2)cc1 | 0.467%
30 | NCc1cccc(C(=O)N[C@@H](Cc2ccc3ccccc3c2)C(=O)N[C@@H](CCc2ccccc2)C(=O)COc2ccccc2)c1 | -2.35%
31 | O=C(CN1C(=O)c2ccccc2S1(=O)=O)NCCc1ccccc1 | 6.97%
32 | CCOc1ccc(C(=O)Nc2cccc(C)n2)cc1 | -5.34%
33 | CN1CCc2c1nc1ccc(Br)cc1c2N | -3.16%
34 | OC1(c2ccccc2)c2ccccc2N=C2CCCCCN21 (centres unmarked) | 0.0285%
35 | CCc1ccc(OCC(=O)N2CCN(C(=O)COc3ccc(CC)cc3)CC2)cc1 | -2.15%
36 | C=CCn1c(=O)/c(=C2/Sc3ccc(OC)cc3N2CC)s/c1=C1/C(=O)NN=C1C | 0.687%
37 | COc1cc(/C=c2\sc3ncnn3c2=O)ccc1OCCC(C)C | -3.06%
38 | O=C1CC(c2ccccc2F)c2c(O)nc3ncnn3c2N1 (centres unmarked) | -0.0678%
39 | Cn1c(=O)c2c(nc(SCC(=O)N3CCOCC3)n2Cc2ccccc2Cl)n(C)c1=O | -6.38%
40 | COc1ccc2c(c1)c1c(c3ccccc3n1OS(=O)(=O)c1ccc(C)cc1)n2C | 9.19%
41 | Cc1ccc(S(=O)(=O)N(CC(=O)Nc2ccccc2C)c2ccc(F)cc2)cc1 | -6.89%
42 | Cc1nnc(N2CCCC(C(=O)N(C)Cc3ccccc3)C2)c2nn(-c3ccc(Cl)cc3)c(C)c12 (centres unmarked) | 6%

Row | SMILES | % Inhibition @ 10 uM
43 | Cc1cc(C)c2c(O)nc(SCC(=O)c3ccc(O)c(O)c3)nc2n1 | -8.35%
44 | COc1ccc(-c2cn3c(n2)sc2cc(C(=O)NCCCN4CCc5ccccc5C4)ccc23)cc1 | 9.08%
45 | Cc1cc(C)c(C#N)c(SCC(=O)N(Cc2ccccc2)Cc2ccccc2)n1 | 0.686%
46 | COc1ccc(CN2CCN(Cc3ccc(C)cc3)CC2)cc1 | 3.7%
47 | CCOc1ccccc1NC(=O)C1=C(C)NC(=O)NC1c1ccc(OC)c(OC)c1 (centres unmarked) | -3.97%
48 | CCc1nn(C(C)C(=O)NCCc2c[nH]c3ccccc23)c(=O)c2cc3occc3n12 (centres unmarked) | -0.281%
49 | NCCCCCCNC(=O)c1c(O)nc2c(c1O)CCCC2 | -9.62%
50 | O=C(Nc1ccccc1)Nc1ccccc1C#Cc1ccccc1 | -5.94%
51 | COc1ccc(CNC23CC4CC(CC(C4)C2)C3)c2ccccc12 | -2.91%
52 | Cc1cccc(-c2noc(CN(C(=O)COc3ccccc3C)C(C)C)n2)c1 | 1.94%
53 | Cn1c(=O)c2c(-c3ccccc3Cl)n(-c3ccccc3)cc2n(C)c1=O | 3.62%
54 | CCSc1nnc(NC(=O)CSc2nnc(Cc3cccn3C)n2Cc2ccccc2)s1 | -1.3%
55 | Cc1ccc2c(c1)cc1c(=O)n(CC(=O)N3CCOCC3)nc(C)n12 | -3.47%
56 | CC1=C(c2ccc(C)c(C)c2)S(=O)(=O)N=C1N1CCC(C(=O)NCCN2CCCCC2C)CC1 (centres unmarked) | 2.65%
57 | Nc1ncnc2oc(-c3ccccc3)c(-c3ccccc3)c12 | 4.44%
58 | Cc1cc(C)c2c(O)n(-c3ccccc3)nc2n1 | -1.86%
59 | COc1cc(OC)cc(C(=O)NCc2ccc3c(c2)OCO3)c1 | -3.33%
60 | O=C(NCCc1ccc(Cl)cc1)C1C2C=CC3(CN(Cc4cccs4)C(=O)C13)O2 (centres unmarked) | 12%
61 | CN(Cc1ccccc1)C(=O)CCSc1ccc(Cl)cc1 | 5.42%
62 | CC1CCCN(c2ncnc3c2cnn3C)C1 (centres unmarked) | 4.3%
